Test results from patent EP3727588B1, “ACTIVATOR PEPTIDES OF THE ENZYME ADAM 10 AND RELATED USES IN THE TREATMENT OF ALZHEIMER'S DISEASE” (UNIVERSITA' DEGLI STUDI DI MILANO, priority 2017, dated 2019).
Entries after “also recorded” stand apart in the source; their conditions may differ. At least one peptide structure holds a part that was inferred or is arguable (an end, a ring closure or a residue). Peptide text beside a SMILES is read from it.

Tests used:
ADAM10 [1] = test: Western Blot of ADAM10 in total homogenate and synaptic fraction (TIF) of brain of treated C57BL/6 mice; type: in vivo; conditions: C57BL/6 mice, intraperitoneal 3 nmol/g
sAPPα [2] = test: Western Blot of sAPPα in soluble brain fraction of treated C57BL/6 mice (ADAM10 activity); type: in vivo; conditions: C57BL/6 mice, intraperitoneal 3 nmol/g, 24 hours (Figure 9)
ADAM10/AP2 complex = biological target: T1, ADAM10/AP2 complex (Mus musculus, UniProt Q9DBG3); test: co-immunoprecipitation of ADAM10 with AP2 subunits in brain homogenate of treated C57BL/6 mice; type: in vivo; conditions: C57BL/6 mice
T1 construct: from tissue; host or cells: total brain homogenate of treated mice (C57BL/6; wild-type and APP/PS1)

[3] = test system: AP2 complex with APP, GluA1, GABA-A β3; test: co-immunoprecipitation of AP2 (α-adaptin) with other target proteins in acute hippocampal slices; type: cell-based, rat; conditions: 10 µM
TacADAM10-RAR = test: fluorescence-based antibody uptake test (internalization) in COS7 cells; type: cell-based; conditions: COS7 cells transfected with TacADAM10-RAR, 1 µM, 30 min
ADAM10 [4] = test: Western Blot of ADAM10 in synaptic fraction (TIF) of primary hippocampal neurons; type: cell-based, rat; conditions: primary hippocampal neurons DIV14, 1µM, 30 minutes
ADAM10 [5] = test: BS^3 cross-link test in acute hippocampal slices, intracellular pool of ADAM10; type: cell-based, rat; conditions: 10µM, 30 minutes, with BS^3
ADAM10 [6] = test: Western Blot of ADAM10 in total homogenate and TIF of APP/PS1 mice; type: in vivo; conditions: 14 days, percentage of WT mice treated with inPEP3
[7] = Y-maze test, WT and APP/PS1 mice of 6 months; type: in vivo; conditions: treated for 14 days
BACE-1 = test: Western Blot of synaptic localization of BACE-1; type: in vivo, mice; conditions: 14 days' treatment
[8] = test system: GluN2A, GluN2B, GLUA1, pS845 GluA1; test: Western Blot of glutamate receptor subunits in TIF of APP/PS1 mice; type: in vivo; conditions: APP/PS1 (Tg) mice of 9 months, 14 days; percentage of WT mice treated with inPEP3
NOTCH-1 = test: Western Blot of NOTCH-1 fragment after 14 days' treatment; type: in vivo, mice
Aβ = test: ELISA of Aβ levels in APP/PS1 mice; type: in vivo; conditions: APP/PS1 (Tg) mice of 9 months, 14 days
N-Cadherin = test: Western Blot of N-Cadherin cut (CTF/full length) after 14 days' treatment; type: in vivo, mice
sAPPα [9] = test: ELISA of sAPPα in brain homogenate after 14 days' treatment; type: in vivo, mice
ADAM10/AP2 interaction = biological target: T2, ADAM10/AP2 interaction (Mus musculus, UniProt Q9DBG3); test: co-immunoprecipitation of ADAM10 with β2-adaptin in brain homogenate of APP/PS1 mice; type: in vivo; conditions: APP/PS1 (Tg) mice of 9 months, 14 days; percentage of WT mice treated with inPEP3
T2 construct: from tissue; host or cells: total brain homogenate of treated mice (C57BL/6; wild-type and APP/PS1)

[10] = Novel Object Recognition Test (NORT), WT and APP/PS1 mice of 6 months; type: in vivo; conditions: 14 days' treatment
[11] = single intraperitoneal injection 3 nmol/g, 24 hours
[12] = 14 days, daily intraperitoneal 3 nmol/g

T1 sequence (P84091 whole entry): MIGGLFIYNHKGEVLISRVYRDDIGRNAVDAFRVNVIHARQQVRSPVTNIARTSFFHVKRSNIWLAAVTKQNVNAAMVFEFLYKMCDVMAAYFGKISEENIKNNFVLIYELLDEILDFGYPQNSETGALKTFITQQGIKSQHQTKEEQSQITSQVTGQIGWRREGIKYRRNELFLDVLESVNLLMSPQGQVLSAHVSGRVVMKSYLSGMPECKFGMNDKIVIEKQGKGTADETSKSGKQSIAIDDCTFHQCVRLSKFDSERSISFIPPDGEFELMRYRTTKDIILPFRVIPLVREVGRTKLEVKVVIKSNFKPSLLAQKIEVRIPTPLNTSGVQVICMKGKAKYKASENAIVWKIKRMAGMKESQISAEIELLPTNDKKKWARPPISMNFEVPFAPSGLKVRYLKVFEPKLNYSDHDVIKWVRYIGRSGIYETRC
T1 sequence (Q9DBG3 whole entry): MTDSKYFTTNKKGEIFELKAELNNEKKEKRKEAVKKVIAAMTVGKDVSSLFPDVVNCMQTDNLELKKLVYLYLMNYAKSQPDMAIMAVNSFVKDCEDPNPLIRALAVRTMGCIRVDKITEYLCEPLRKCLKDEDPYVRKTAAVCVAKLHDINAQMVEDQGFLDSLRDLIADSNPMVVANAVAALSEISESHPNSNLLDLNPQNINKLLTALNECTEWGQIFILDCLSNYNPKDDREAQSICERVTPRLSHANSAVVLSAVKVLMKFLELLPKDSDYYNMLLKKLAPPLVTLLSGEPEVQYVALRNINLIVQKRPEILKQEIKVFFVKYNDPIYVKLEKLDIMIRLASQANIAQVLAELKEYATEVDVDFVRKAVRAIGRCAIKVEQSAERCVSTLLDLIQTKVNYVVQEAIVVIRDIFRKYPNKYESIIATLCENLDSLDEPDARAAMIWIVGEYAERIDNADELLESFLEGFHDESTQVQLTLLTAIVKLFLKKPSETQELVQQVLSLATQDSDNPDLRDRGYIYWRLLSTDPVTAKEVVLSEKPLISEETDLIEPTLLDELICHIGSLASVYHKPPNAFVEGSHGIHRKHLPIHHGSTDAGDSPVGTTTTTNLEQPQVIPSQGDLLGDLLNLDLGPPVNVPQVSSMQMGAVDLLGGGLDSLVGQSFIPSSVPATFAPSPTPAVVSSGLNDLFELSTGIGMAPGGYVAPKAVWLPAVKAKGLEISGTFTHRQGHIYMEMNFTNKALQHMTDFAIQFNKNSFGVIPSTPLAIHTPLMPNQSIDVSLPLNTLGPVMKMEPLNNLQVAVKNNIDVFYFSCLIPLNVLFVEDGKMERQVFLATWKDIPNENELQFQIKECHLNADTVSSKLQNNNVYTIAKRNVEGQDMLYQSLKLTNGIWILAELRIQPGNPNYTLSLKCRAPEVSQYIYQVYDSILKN
T1 sequence (P17427 whole entry, further chain): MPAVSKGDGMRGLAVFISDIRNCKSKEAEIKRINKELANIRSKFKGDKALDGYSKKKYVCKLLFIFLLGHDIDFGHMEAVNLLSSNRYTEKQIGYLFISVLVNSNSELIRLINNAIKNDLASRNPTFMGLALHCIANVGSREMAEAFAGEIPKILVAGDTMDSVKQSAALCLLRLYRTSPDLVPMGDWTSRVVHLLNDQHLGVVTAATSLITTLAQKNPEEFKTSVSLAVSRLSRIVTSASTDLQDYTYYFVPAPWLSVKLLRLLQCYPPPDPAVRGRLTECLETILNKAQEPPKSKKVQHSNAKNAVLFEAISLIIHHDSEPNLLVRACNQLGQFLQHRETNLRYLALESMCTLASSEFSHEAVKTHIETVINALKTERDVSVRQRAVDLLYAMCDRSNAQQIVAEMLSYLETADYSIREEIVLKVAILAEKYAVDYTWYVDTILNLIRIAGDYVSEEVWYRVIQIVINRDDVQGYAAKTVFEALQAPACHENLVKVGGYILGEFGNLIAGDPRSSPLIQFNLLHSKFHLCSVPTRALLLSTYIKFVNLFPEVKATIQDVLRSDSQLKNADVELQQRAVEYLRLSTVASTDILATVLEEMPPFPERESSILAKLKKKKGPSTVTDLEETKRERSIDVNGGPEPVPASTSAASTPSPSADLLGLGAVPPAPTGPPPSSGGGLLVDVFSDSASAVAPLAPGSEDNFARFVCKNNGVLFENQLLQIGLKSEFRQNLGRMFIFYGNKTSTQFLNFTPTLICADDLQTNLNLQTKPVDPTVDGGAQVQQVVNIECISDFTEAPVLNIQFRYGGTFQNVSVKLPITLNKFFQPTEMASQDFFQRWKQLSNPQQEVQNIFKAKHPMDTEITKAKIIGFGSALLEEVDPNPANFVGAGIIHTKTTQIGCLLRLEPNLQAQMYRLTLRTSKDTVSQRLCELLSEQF
T1 sequence (P62743 whole entry, further chain): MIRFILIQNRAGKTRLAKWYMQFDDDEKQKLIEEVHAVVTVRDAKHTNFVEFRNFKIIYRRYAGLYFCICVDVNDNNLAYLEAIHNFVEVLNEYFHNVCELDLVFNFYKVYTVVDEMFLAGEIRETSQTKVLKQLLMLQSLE
T2 sequence (P17427 whole entry): as the sequence (P17427 whole entry, further chain) above
T2 sequence (Q9DBG3 whole entry): as the sequence (Q9DBG3 whole entry) above
T2 sequence (P84091 whole entry, further chain): as the sequence (P84091 whole entry) above
T2 sequence (P62743 whole entry, further chain): as the sequence (P62743 whole entry, further chain) above

CC(C)C[C@H](NC(=O)[C@H](CCCNC(=N)N)NC(=O)[C@@H]1CCCN1C(=O)[C@H](CCCNC(=N)N)NC(=O)[C@H](CCC(N)=O)NC(=O)[C@H](CCCNC(=N)N)NC(=O)[C@@H]1CCCN1C(=O)[C@@H]1CCCN1C(=O)[C@H](CC(C)C)NC(=O)CNC(=O)[C@H](CO)NC(=O)CNC(=O)CNC(=O)[C@H](CCCNC(=N)N)NC(=O)[C@H](CCCNC(=N)N)NC(=O)[C@H](CCCNC(=N)N)NC(=O)[C@H](CCC(N)=O)NC(=O)[C@H](CCCNC(=N)N)NC(=O)[C@H](CCCNC(=N)N)NC(=O)[C@H](CCCCN)NC(=O)[C@H](CCCCN)NC(=O)[C@H](CCCNC(=N)N)NC(=O)CNC(=O)[C@@H](N)Cc1ccc(O)cc1)C(=O)O [PEP2] (H-YGRKKRRQRRRGGSGLPPRQRPRL-OH)
ADAM10/Tubulin OD ratio, total brain lysate (ADAM10 [1]; 24 hours (Figure 8C)): 98.48 ± 11.02%
ADAM10/Tubulin OD ratio, synaptic fraction (TIF) (ADAM10 [1]; 24 hours (Figure 8D)): 151.70 ± 9.77%
OD ratio between soluble alpha fragment APP (sAPPα) and total soluble APP (sAPPα [2]): 271.40 ± 36.90%
co-precipitation of µ2 with ADAM10 (ADAM10/AP2 complex; [11]): -54.39 ± 7.88%
co-precipitation of β2-adaptin with ADAM10 (ADAM10/AP2 complex; [11]): -73.36 ± 4.23%
interaction between AP2 complex (α-adaptin) and APP, GluA1, GABA-A β3 [3]: neither PEP2 nor PEP3 interfere with the bond; also recorded: do not display any changes in the interaction levels
internalization index (TacADAM10-RAR): -10.95 ± 15.82%
synaptic localization of ADAM10 (TIF) with respect to the controls (ADAM10 [4]): +65.75 ± 3.19%
intracellular pool of ADAM10 (ADAM10 [5]): 74.22 ± 3.83%

N=C(N)NCCC[C@H](NC(=O)CNC(=O)[C@@H](N)Cc1ccc(O)cc1)C(=O)N[C@@H](CCCCN)C(=O)N[C@@H](CCCCN)C(=O)N[C@@H](CCCNC(=N)N)C(=O)N[C@@H](CCCNC(=N)N)C(=O)N[C@@H](CCC(N)=O)C(=O)N[C@@H](CCCNC(=N)N)C(=O)N[C@@H](CCCNC(=N)N)C(=O)N[C@@H](CCCNC(=N)N)C(=O)NCC(=O)NCC(=O)N[C@@H](CO)C(=O)NCC(=O)N[C@@H](CCC(N)=O)C(=O)N1CCC[C@H]1C(=O)N1CCC[C@H]1C(=O)N[C@@H](CCC(=O)O)C(=O)N[C@@H](CCC(N)=O)C(=O)N[C@@H](CCC(=O)O)C(=O)N1CCC[C@H]1C(=O)N[C@@H](CCCNC(=N)N)C(=O)NCC(=O)O [inPEP3, reference compound] (H-YGRKKRRQRRRGGSGQPPEQEPRG-OH)
synaptic levels of ADAM10 (TIF) (ADAM10 [6]; APP/PS1 (Tg) mice of 6 months): 69.94 ± 3.30%
synaptic levels of ADAM10 (TIF) (ADAM10 [6]; APP/PS1 (Tg) mice of 9 months): 57.12 ± 6.65%
total levels of ADAM10 (total homogenate) (ADAM10 [6]; APP/PS1 (Tg) mice of 9 months): 108.40 ± 14.03%
ratio of the new-arm/familiar-arm exploration time (Y-maze) ([7]; APP/PS1 mice of 6 months): 0.91 ± 0.20
ratio of the new-arm/familiar-arm exploration time (Y-maze) ([7]; WT mice of 6 months): 1.51 ± 0.16
synaptic localization of BACE-1 (BACE-1): 111.00 ± 5.62%
interaction between ADAM10 and µ2 (co-IP OD) (ADAM10/AP2 complex; [12]): +11.80 ± 12.18%
interaction between ADAM10 and α-adaptin (co-IP OD) (ADAM10/AP2 complex; [12]): +11.40 ± 9.86%
interaction between ADAM10 and β2-adaptin (co-IP OD) (ADAM10/AP2 complex; [12]): +3.70 ± 10.81%
synaptic levels of GLUN2A (TIF) [8]: 79.83 ± 4.42%
production of the fragment of NOTCH-1 (NOTCH-1): 101.70 ± 9.45%
synaptic localization of ADAM10 (TIF) with respect to the controls (ADAM10 [4]): +5.30 ± 4.93%
levels of Aβ (ELISA) (Aβ): 6.15 ± 0.63 pg/mL
intracellular pool of ADAM10 (ADAM10 [5]): 102.70 ± 9.73%
N-CAD CTF / N-CAD FL ratio (N-Cadherin): 90.22 ± 11.73%
release of sAPPα (ELISA) (sAPPα [9]): 94.93±5.62%
ADAM10/β2 adaptin immunoprecipitation (ADAM10/AP2 interaction) (ADAM10/AP2 interaction): 131.70 ± 39.93%
% exploration time, familiar object ([10]; APP/PS1 (Tg) mice of 6 months): 44.62±4.20%
% exploration time, new object ([10]; APP/PS1 (Tg) mice of 6 months): 55.38±4.20%
% exploration time, familiar object ([10]; WT mice of 6 months): 38.81±2.76%
% exploration time, new object ([10]; WT mice of 6 months): 61.19±2.76%

CC(C)C[C@H](NC(=O)[C@H](CCCNC(=N)N)NC(=O)[C@@H]1CCCN1C(=O)[C@H](CCC(=O)O)NC(=O)[C@H](CCC(N)=O)NC(=O)[C@H](CCC(=O)O)NC(=O)[C@@H]1CCCN1C(=O)[C@@H]1CCCN1C(=O)[C@H](CC(C)C)NC(=O)CNC(=O)[C@H](CO)NC(=O)CNC(=O)CNC(=O)[C@H](CCCNC(=N)N)NC(=O)[C@H](CCCNC(=N)N)NC(=O)[C@H](CCCNC(=N)N)NC(=O)[C@H](CCC(N)=O)NC(=O)[C@H](CCCNC(=N)N)NC(=O)[C@H](CCCNC(=N)N)NC(=O)[C@H](CCCCN)NC(=O)[C@H](CCCCN)NC(=O)[C@H](CCCNC(=N)N)NC(=O)CNC(=O)[C@@H](N)Cc1ccc(O)cc1)C(=O)O [inPEP2, reference compound] (H-YGRKKRRQRRRGGSGLPPEQEPRL-OH)
internalization index (TacADAM10-RAR): -1.84 ± 13.92%
synaptic localization of ADAM10 (TIF) with respect to the controls (ADAM10 [4]): -5.55 ± 7.72%
intracellular pool of ADAM10 (ADAM10 [5]): 102.90 ± 4.67%
